Measured values taken from PubChem BioAssay AID485281 (National Center for Advancing Translational Sciences (NCATS), 2010).
The whole screen tested about 350,000 compounds, of which about 260 (0.074%) were called active. The inconclusive results got no clear call from the source; some entries with a clear call stand among them for comparison. The call rests on the fitted dose curve; in most records, active means well fitted inhibition curve with a large enough effect; inconclusive means small, poorly fitted or top-dose-only effect; inactive means no such curve, though single readings can be large or run the other way. Potencies beside an inconclusive call are fits to weak or partial responses and may not hold up.

molecular target: Ferritin light chain (Equus caballus) (UniProt P02791); assay: qHTS Assay for Identification of Novel General Anesthetics; settings: apoferritin/1-aminoanthracene competitive binding, fluorescence; series mostly up to 77.5 µM; further: nearly all actives have a fitted effect of over 20% in size
In short: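 Horse-spleen apoferritin (10 uM) was mixed with 50% saturated 1-aminoanthracene in PBS, exposed to compounds for 10 min at room temperature, and read for fluorescence (ex 380 nm, em 535 nm). Competitive displacement was fitted with a four-parameter Hill equation.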
Potency means the concentration at half of the fitted maximal effect; tags describe the fitted curve by direction and shape.

Chain of UniProt P02791 (P02791 whole entry, looked up): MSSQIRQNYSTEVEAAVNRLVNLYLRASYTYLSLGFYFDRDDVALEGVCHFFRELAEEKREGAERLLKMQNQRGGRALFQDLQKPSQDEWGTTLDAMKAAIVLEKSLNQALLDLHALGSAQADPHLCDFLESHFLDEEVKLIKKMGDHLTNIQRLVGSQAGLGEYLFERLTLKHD

Potency, active:
Cc1cccc(OCC(=O)OCc2cc(=O)n3nc(C4CCCCC4)sc3n2)c1 15.8 µM

Potency, inconclusive:
CCOC(=O)C1=C(C)N=c2s/c(=C\c3ccc(OC(C)=O)c(OCC)c3)c(=O)n2C1/C=C/c1ccccc1 (stereo not given) 50.1 µM [inhibitor, single point], O=C(CCCN1C(=O)/C(=C/c2ccccc2Cl)SC1=S)N1CCOCC1 7.08 µM [inhibitor, single point], CCCc1ccc(C2Sc3ccccc3NC3=C2C(=O)c2ccccc23)cc1 (stereo not given) 7.94 µM [inhibitor, partial curve], CC1CC(=O)N(c2ccc(NCCc3ccc(O)cc3)c([N+](=O)[O-])c2)C1=O (stereo not given) 28.2 µM [inhibitor, partial curve], CCOc1ccc(C(Nc2ccc(C)cc2)P2(=O)OCCCO2)cc1 (stereo not given) 12.6 µM [inhibitor, partial curve], Cc1ccc(OCCCCn2ccnc2C)c(C)c1 20 µM [inhibitor, partial curve], COC(=O)c1ccccc1NC(=S)NC(=O)COc1ccccc1Cl 35.5 µM [inhibitor, partial curve], CCCC(=O)Nc1ccc(Nc2ccccc2)cc1 39.8 µM [inhibitor, single point], C/C(=N\NC(=O)c1cc(-c2ccncc2)nc2ccccc12)c1ccc(OC(F)F)cc1 28.2 µM [inhibitor, single point], NC(=O)C1CCN(C2=C(NS(=O)(=O)c3ccc(Br)cc3)C(=O)c3ccccc3C2=O)CC1 44.7 µM [inhibitor, partial curve], Cc1cccc(C(c2sc3nc(-c4ccco4)nn3c2O)N2CCN(c3ccccc3)CC2)c1 (stereo not given) 15.8 µM [inhibitor, partial curve], c1ccc(CSc2nnc(-c3c[nH]c4ccccc34)o2)cc1 12.6 µM [inhibitor, partial curve], CNc1ccc(Br)cc(C(=O)/C=C/c2ccc3c(c2)OCO3)c1=O 11.2 µM [inhibitor, partial curve], COc1cccc(NC(=O)CSc2nc3ccccc3c(=O)n2CCCC(=O)N2CCCC2)c1 11.2 µM [inhibitor, partial curve], Cc1occc1C(=O)NNC(=O)Nc1ccc([N+](=O)[O-])cc1 39.8 µM [inhibitor, single point], O=C(Nc1cccc(O)c1)c1cccc(C(=O)Nc2cccc(O)c2)c1 25.1 µM [inhibitor, single point], O=[N+]([O-])c1cc(-c2ccc(C(=S)N3CCOCC3)o2)ccc1Cl 35.5 µM [inhibitor, single point], CC(C)n1c(C(O)c2ccc3c(c2)OCO3)nc2ccccc21 (stereo not given) 50.1 µM [inhibitor, single point], CC(C)(C)CC(C)(C)NC(=O)Nc1cccc([N+](=O)[O-])c1 25.1 µM [inhibitor, partial curve], C=CCn1cnc2scc(-c3ccc(C)cc3)c2c1=O 15.8 µM [inhibitor, partial curve], O=C1NC(c2cccc(Cl)c2)Oc2ccccc21 (stereo not given) 35.5 µM [inhibitor, partial curve], Cc1cc(NC(=O)Cn2cnc3sc(C)c(-c4ccccc4)c3c2=O)no1 31.6 µM [inhibitor, single point], Cc1ccc(CNC(=O)CS(=O)Cc2nc(-c3ccccc3Cl)oc2C)cc1 (stereo not given) 28.2 µM [inhibitor, partial curve], O=C(c1ccccc1)N1CCN(c2ccc([N+](=O)[O-])c(NCC3CCCO3)c2)CC1 (stereo not given) 25.1 µM [inhibitor, partial curve], CCOC(=O)C1CCN(C(=O)C2CCN(C3=NS(=O)(=O)C(c4ccc(C)cc4)=C3CC)CC2)CC1 1.78 µM [inhibitor, full curve], O=[N+]([O-])c1ccccc1S(=O)(=O)N1CCN(CC2CC3C=CC2C3)CC1 (stereo not given) 25.1 µM [inhibitor, partial curve], Cc1cc(N2CCN(C(c3ccccc3)c3ccccc3)CC2)n2ncnc2n1 22.4 µM [inhibitor, partial curve], CCc1ccc(OC2=NS(=O)(=O)c3ccccc32)cc1 25.1 µM [inhibitor, partial curve], Cc1ccc(OS(=O)Nc2cccc3nccnc23)cc1 (stereo not given) 31.6 µM [inhibitor, partial curve], O=C(CNC(=O)c1ccc([N+](=O)[O-])cc1)N/N=C/c1c[nH]c2ccccc12 12.6 µM [inhibitor, partial curve], CCOC(=O)c1c(C)oc2nc(C)nc(NCc3ccc(Cl)cc3)c12 10 µM [inhibitor, single point], Cc1ccc2oc(-c3cccc(NC(=O)c4ccc(Br)o4)c3C)nc2c1 35.5 µM [inhibitor, partial curve], Cc1ccc(-n2c(C)cc(/C=N/Nc3ccc([N+](=O)[O-])cn3)c2C)c(C)c1 15.8 µM [inhibitor, partial curve], Oc1ccccc1-c1cc(-c2cccc(F)c2)n[nH]1 35.5 µM [inhibitor, partial curve], COc1ccccc1NS(=O)(=O)c1ccc(C(=O)OCC(=O)NCc2ccco2)cc1 28.2 µM [inhibitor, single point], Cc1cccnc1Nc1nc(-c2ccc(O)cc2O)cs1 28.2 µM [inhibitor, partial curve], Cc1cc(C)n(-c2ccc(C(=O)OCC(=O)Nc3ccc(Cl)c(S(=O)(=O)N(C)C)c3)cc2)n1 7.94 µM [inhibitor, partial curve], CCN(CC)C(=O)Sc1cccc2cccnc12 7.94 µM [inhibitor, full curve, poor fit], COc1ccc(C(=O)COC(=O)c2cccc(NC(=O)c3ccc(OC)c(OC)c3)c2)cc1 3.98 µM [inhibitor, full curve], COc1ccc(C(=O)c2cn(Cc3ccc(F)cc3)c3ccc(C)cc3c2=O)cc1 7.94 µM [inhibitor, partial curve], Oc1ccccc1C(=S)N1CCCCCC1 35.5 µM [inhibitor, partial curve], COc1ccc(OC)c(-c2cc(C3CCN(C(=O)OC(C)(C)C)CC3)[nH]n2)c1 28.2 µM [inhibitor, partial curve], COc1ccc(N(C)S(=O)(=O)c2cccc(C(=O)NCC3CCCO3)c2)cc1 (stereo not given) 31.6 µM [inhibitor, single point], CSc1ccccc1NC(=O)C1=CC(c2ccc(C)cc2)=NS(=O)(=O)N1C 17.8 µM [inhibitor, partial curve], CC(C)(C)c1ccc(-c2nc(C#N)c(NCc3cccnc3)o2)cc1 35.5 µM [inhibitor, partial curve], CCn1c(SCC(=O)Nc2nc3ccc(C)cc3s2)nc2c(c1=O)SC(C)C2 (stereo not given) 2.51 µM [inhibitor, full curve]

Potency, inactive:
Cc1cc(=O)oc2c(C)c(OCC(=O)N3CCN(c4ccc(F)cc4)CC3)ccc12, O=c1[nH]cnc2c1nc(Cl)n2C1OC(CO)C(O)C1O (stereo not given), O=C(CSc1n[nH]c(-c2ccncc2)n1)NC1CCS(=O)(=O)C1 (stereo not given), COc1ccc(-c2cc(C(=O)Nc3ccc(Cl)cc3Cl)c3ccccc3n2)cc1OC, COc1ccccc1C(=O)Nc1nc(-c2ccc(S(=O)(=O)N3CCOCC3)cc2)cs1, Cc1csc(SCC(=O)N2CCN(S(=O)(=O)c3ccc(Cl)cc3)CC2)n1, O=C(O)CCn1c(=O)n(CCC(=O)O)c(=O)n(CCC(=O)O)c1=O, O=C1OCC(c2ccccc2)=C1c1ccccc1, O=C(N/N=C/c1ccccn1)c1cc(-c2ccc(Br)cc2)nc2ccccc12, N#Cc1c(-c2ccc(F)cc2)noc1N, O=S(=O)(c1ccccc1)c1nc(-c2cccs2)oc1SCc1ccccc1F, C=CCn1c(SCC(=O)Nc2nc(C)cs2)nnc1C(CO)NC(=O)c1ccccc1 (stereo not given), C=CCN1C(=O)/C(=C\c2ccc(Cl)cc2)N=C1SCC(=O)NCCC, CC1CN(C(=O)CSc2cn(CC(=O)N3CCOCC3)c3ccccc23)CC(C)O1 (stereo not given), CCOC(=O)CSc1nc2c(sc3ccccc32)c(=O)n1CCc1ccccc1, O=C(N/N=C/c1ccc(F)c(F)c1)c1cc2c(s1)-c1ccccc1CC2, Cc1nc(-c2ccccc2)sc1-c1ccnn1C, N#Cc1cccc(NC(=O)CSc2ccc3c4c(cccc24)C(=O)c2ccccc2-3)c1, O=C(CCc1ccccc1)N1CCCC(Nc2ccc(F)cc2)C1 (stereo not given), COc1ccc(C(=O)CSc2nc(SC)ns2)cc1OC, O=C(NC1CCCCCC1)C1CCN(C(=O)N2CCOc3ccccc32)CC1, COc1ccc(S(=O)(=O)N2CCOC2CNC(=O)C(=O)NCCc2ccccc2)cc1OC (stereo not given), COCCN(CCOC)C(=O)c1ccc(CSc2nc3ccccc3s2)cc1
